Data published in publication PMC12040169 (PLOS Biology, 2025).
The list shows a part of the results.

These compounds were tested on T1, C. trachomatis L2/434/Bu expressing GFP (CTL2-GFP). Conditions: total inclusion area; 28.5 h, 10 µM; inhibitor.
T1 construct: L2/434/Bu GFP intracellular growth in HeLa cells
Set-up: species or system HeLa; C. trachomatis total inclusion area by high-content imaging, normalised to DMSO
Summary of the method: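 Host cell viability was gauged from Hoechst-stained nuclei counts, while chlamydial growth was taken from total inclusion area and inclusion number per well. Cells were fixed and imaged by high-content microscopy once bulk GFP and resorufin fluorescence had been measured.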

Row | SMILES | % of control remaining
1 | Brc1cccc(-c2cn3ccnc3c(NC3CCOCC3)n2)c1 [CBK066291] | 63.4395
2 | O=C(COc1ccccc1[N+](=O)[O-])Nc1cnc(-c2cccc(C(F)(F)F)c2)c(-c2ccco2)n1 [CBK036899] | 107.995
3 | Cc1cnc(Cl)c2ncn([C@H]3C[C@@H](O)[C@@H](CO)O3)c12 [CBK201234] | 107.748
4 | O=C1NC(=O)C(CC(=O)N2CCC(Cn3cncn3)(C3CCCCC3)CC2)N1 (centres unmarked) [CBK136808] | 80.4311
5 | Cc1cc(S(=O)(=O)N2CCN(c3ccc(Cl)cc3)CC2)c(C)cc1Cl [CBK044965] | 77.5341
6 | O=C(c1ccncc1)c1ccc(N2CCN(C3CC(=O)N(Cc4cccs4)C3=O)CC2)cc1 (centres unmarked) [CBK269074] | 87.3715
7 | Cc1ccccc1CN(C)C(C)C(=O)Nc1ccc(S(N)(=O)=O)cc1 (centres unmarked) [CBK304589] | 63.2897
8 | COc1ccccc1C/C(N)=N/OC(=O)COc1ccc2ccccc2c1 [CBK263730] | 95.1805
9 | COc1ccccc1OCC(=O)N1CCNC1=O [CBK288201] | 99.6977
10 | N#Cc1cccc(C(=O)NCC2(N3CCOCC3)CCSC2)c1 (centres unmarked) [CBK306344] | 84.6548
11 | COc1ccccc1-c1nnc(NC(=O)Cc2cccs2)s1 [CBK287361] | 100.008
12 | COCCc1nc(Cc2ccc(OC)cc2)nn1CC1COCCO1 (centres unmarked) [CBK307521] | 68.6227
13 | O=C(O)CC(NC=C1C(=O)CCCC1=O)C(=O)O (centres unmarked) [CBK261997] | 106.151
14 | Cc1cc(Cl)ccc1OCC(=O)Nc1nnc[nH]1 [CBK287940] | 91.205
15 | CN(C)CCN(C)Cc1ccccc1O [CBK261875] | 91.3393
16 | CCN1CCN(C(=O)CN(CCc2ccccc2)S(C)(=O)=O)CC1 [CBK266666] | 84.1032
17 | CC1CCN(C(=O)Cn2ncn3c(cc4ccsc43)c2=O)CC1 [CBK284190] | 67.898
18 | CCCC1c2cccn2CCN1S(=O)(=O)c1ccc2[nH]c(=O)[nH]c(=O)c2c1 (centres unmarked) [CBK286388] | 90.248
19 | O=C1CN(S(=O)(=O)c2ccc(F)cc2Cl)CCN1 [CBK051081] | 40.2995
20 | Cc1cc(C(F)(F)F)c2c(NC/C=C/c3ccco3)n[nH]c2n1 [CBK283651] | 85.2902
21 | Cc1cc(NC(=O)Cn2nc(C(F)(F)F)c(Cl)c2C)no1 [CBK018709] | 86.687
22 | CCNc1cncc(-c2ccc(N)cc2)n1 [CBK065658] | 100.371
23 | O=C(C[C@@H]1CCNC[C@@H]1Cc1cc(-c2ccc(F)cc2)on1)Nc1ccccc1 [CBK288801] | 93.2106
24 | Cc1cnc(CNC(=O)c2ccc3nc[nH]c3c2)cn1 [CBK153318] | 107.794
25 | Cc1cc(C(=O)NCc2ccccc2)n[nH]1 [CBK200198] | 119.664
26 | NS(=O)(=O)c1ccc(CCNc2ncnc3c2c(-c2ccccc2)cn3-c2ccc(F)cc2)cc1 [CBK266478] | 74.4933
27 | Cc1ccc(C2(O)CCN(CCNC(=O)C3CCCCC3)CC2)cc1 [CBK283323] | 78.3197

Row | SMILES | % of control remaining
28 | Cc1cc(N2C(=O)NS(=O)(=O)c3cccnc32)ccc1F [CBK288461] | 68.6324
29 | COc1cc(/C=N/NC(=O)c2cccc([N+](=O)[O-])c2)cc(OC)c1O [CBK262172] | 92.9641
30 | c1cncc(COc2ccnc(N3CCCN(Cc4ccc5c(c4)OCO5)CC3)n2)c1 [CBK084112] | 87.0381
31 | COc1ccc(S(=O)(=O)Nc2ccccc2C(=O)Nc2ccc(F)cc2)cc1OC [CBK045404] | 91.5814
32 | CN1CCc2c(sc3ncn4nc(-c5ccncc5)nc4c23)C1 [CBK288540] | 94.3233
33 | COCCNCCOc1c(Cl)cc(C)cc1Br [CBK265087G] | 98.2357
34 | Nc1cccc(Sc2ccc(C(F)(F)F)cn2)c1 [CBK089606] | 79.7387
35 | O=S(=O)(CCSc1nc2ccccc2s1)c1nc2ccccc2s1 [CBK026908] | 62.2639
36 | COc1ccc([C@@]23CC[C@@H](NC(=O)Nc4ccc(Cl)cc4[N+](=O)[O-])C[C@@H]2N(C)CC3)cc1OC [CBK036474T] | 86.9475
37 | O=C(C[C@@H]1O[C@H](CNCc2cccc(Cl)c2)[C@@H](O)[C@H]1O)N1CCCC1 [CBK288914] | 79.8631
38 | Cc1ccc(C(=O)N2CCC(c3n[nH]c4ncccc34)CC2)s1 [CBK284911] | 104.42
39 | Cc1nc(-c2ccccc2)sc1CNC(=O)CCc1c[nH]c2ccccc12 [CBK092373] | 77.6103
40 | Cc1ccccc1OCc1nnc(SCC(=O)NC2CCCCC2)n1C [CBK265817] | 68.9833
41 | O=C(Nc1nccs1)c1ccc2[nH]ccc2c1 [CBK161731] | 101.945
42 | CCc1nc2c(OCCC3CCCCC3)cccn2c1N(C)C(=O)CC(C)C [CBK147671] | 85.4028
43 | NCCNc1ccc(C(=O)Nc2cccc(Cl)c2)cc1[N+](=O)[O-] [CBK263953] | 77.7468
44 | COc1ccc(S(=O)(=O)N2CCC(C(=O)O)(c3ccccc3)CC2)cc1 [CBK267572] | 90.4448
45 | CCN1C(=O)C2(CC(=O)N(Cc3ccc(OC)c(OC)c3)C2=O)c2cc(C)ccc21 (centres unmarked) [CBK075172] | 95.731
46 | CCc1nn2c(O)cc(C)nc2c1-c1cccs1 [CBK283860] | 101.425
47 | O=C(O)CCC(=O)N1CCN(Cc2ccc(Cl)cc2)CC1 [CBK286852] | 65.9138
48 | CC(CCc1ccccc1)NC1CCCc2c1[nH]c1ccc([N+](=O)[O-])cc21 (centres unmarked) [CBK262875] | 25.0482
49 | CCCCSc1nc(N)cc(N2CCOCC(CN(C)C)C2)n1 (centres unmarked) [CBK306659] | 23.2121
50 | Cc1cc(Cc2ccccc2Cl)cc(C2CCCN(CC(=O)N(C)C)C2)n1 (centres unmarked) [CBK286262] | 82.405
51 | COc1ccc2[nH]nc(CN3CCCC(c4cc(O)nc(C)n4)C3)c2c1 (centres unmarked) [CBK306703] | 84.4461
52 | N#CC(c1ccc(O)cc1)N1CCCCC1 (centres unmarked) [CBK028556] | 112.191
53 | COc1cc(-c2nccnc2NCc2ccccn2)cc(OC)c1OC [CBK036936] | 72.7874
54 | COc1cc(CN2CCN(C/C=C/c3ccccc3)CC2)c([N+](=O)[O-])cc1OC [CBK261550] | 101.185

Row | SMILES | % of control remaining
55 | CC1CC(C)CN(C(=O)NCCCCCC(=O)O)C1 (centres unmarked) [CBK286793] | 107.264
56 | COc1ccc(-c2cnc3[nH]c(=O)n([C@@H](CO)C(C)C)c3n2)c(OC)c1OC [CBK064774] | 94.394
57 | O=C(Nc1cccc(C(=O)O)c1)/C(=C\c1ccc2c(c1)OCO2)NC(=O)c1ccc(Br)o1 [CBK263720] | 118.67
58 | O=C(Nc1cccc(C(F)(F)F)c1)c1c(O)c2ccccc2[nH]c1=O [CBK159985] | 54.4913
59 | CCc1nc(CN2CCCC(NCc3cccc(C(N)=O)c3)C2)no1 (centres unmarked) [CBK306254] | 26.7452
60 | O=C(C1=C(O)C(=O)N(Cc2cccnc2)C1c1cccc([N+](=O)[O-])c1)c1ccccc1 (centres unmarked) [CBK263383] | 99.1048
61 | CC(=O)N1N=C(c2cccnc2)OC1(C)C [CBK023619] | 98.4322
62 | Cc1nc(CC(=O)N2[C@H]3CCCCCN(C)[C@@]3(C)C[C@H]2c2ccccc2)cs1 [CBK286104] | 96.1525
63 | Cc1cccc(-c2ncc(C(=O)NCCc3c[nH]cn3)cc2-c2ccncc2)c1 [CBK036678] | 83.908
64 | CC1CCCN(Cc2c(C3CCNCC3)[nH]c3ncccc23)C1 (centres unmarked) [CBK285078] | 78.5883
65 | Cn1cc(C(=O)N2CCc3ccccc3C2)c2ccccc21 [CBK200338] | 87.872
66 | O=C(CN1CCC(c2ccncc2)CC1)N1CCCCC1 [CBK283504] | 95.7931
67 | O=C(NC1CCN(CC(F)(F)F)CC1)c1cnc(-c2ccccc2)s1 [CBK305474] | 88.8598
68 | CN(C)CCNC(=O)c1ccc(-c2cnc3[nH]c(=O)n(CC4CC4)c3n2)cc1 [CBK064578] | 123.28
69 | COc1ccc(-n2nc(N)c3c(=O)oc(N(C)C)nc32)cc1 [CBK007445] | 124.29
70 | Cc1cc(C(=O)Nc2ccc(-c3nc4ccccc4s3)c(O)c2)ccc1[N+](=O)[O-] [CBK262820] | 84.0205
71 | CC1CCCCN1Cc1nc2c(c(=O)n(C)c(=O)n2C)n1CCCc1ccccc1 (centres unmarked) [CBK269326] | 106.419
72 | S=c1cc(SCc2ccccc2Cl)nc[nH]1 [CBK288496] | 88.739
73 | CC(C)(c1ccc(Oc2ccc3c(c2)C(=O)N(c2nccs2)C3=O)cc1)c1ccc(Oc2ccc3c(c2)C(=O)N(c2nccs2)C3=O)cc1 [CBK262258] | 116.995
74 | COCC(C)NC(=O)c1cc(-c2cccs2)nc2onc(C)c12 (centres unmarked) [CBK306473] | 41.7565
75 | O=C(O)c1sc2c(ccc3ccccc32)c1Br [CBK018387] | 70.854
76 | Cc1c(NC(=O)CN(c2ccccc2)S(=O)(=O)N(C)C)cccc1[N+](=O)[O-] [CBK269012] | 85.2365
77 | Cc1ccccc1-c1cc(=O)[nH]c(Nc2ccccc2)n1 [CBK288142] | 57.5541
78 | O=C(O)CC(=Cc1csc(-c2ccc(Cl)cc2)n1)c1nc2ccccc2o1 [CBK297112] | 90.579
79 | COc1cccc(CC(=O)N2CCOc3ncccc32)c1 [CBK305235] | 117.796
80 | CC1CCCC(C)N1S(=O)(=O)c1ccc(NC(=O)CCn2cnc3ccccc3c2=O)cc1 (centres unmarked) [CBK267643] | 118.355
